Measured values taken from the supplement of paper PMC3334620.
Whole data set: some 33,000 sequences, median “E-score (-0.5 to 0.5)” near -0.043, cut for the highest 2% near 0.37. This is one part of the list.

The sequences below were run against T1, Upc2 (UniProt Q12151) (assay: PBM E-score (8-mer binding enrichment) (E-score (-0.5 to 0.5)); higher = stronger / more preferred TF binding; most listed sequences are background and not binding sites). Settings: protein concentration: 200 nM; construct: GST-full length.
T1 sequence: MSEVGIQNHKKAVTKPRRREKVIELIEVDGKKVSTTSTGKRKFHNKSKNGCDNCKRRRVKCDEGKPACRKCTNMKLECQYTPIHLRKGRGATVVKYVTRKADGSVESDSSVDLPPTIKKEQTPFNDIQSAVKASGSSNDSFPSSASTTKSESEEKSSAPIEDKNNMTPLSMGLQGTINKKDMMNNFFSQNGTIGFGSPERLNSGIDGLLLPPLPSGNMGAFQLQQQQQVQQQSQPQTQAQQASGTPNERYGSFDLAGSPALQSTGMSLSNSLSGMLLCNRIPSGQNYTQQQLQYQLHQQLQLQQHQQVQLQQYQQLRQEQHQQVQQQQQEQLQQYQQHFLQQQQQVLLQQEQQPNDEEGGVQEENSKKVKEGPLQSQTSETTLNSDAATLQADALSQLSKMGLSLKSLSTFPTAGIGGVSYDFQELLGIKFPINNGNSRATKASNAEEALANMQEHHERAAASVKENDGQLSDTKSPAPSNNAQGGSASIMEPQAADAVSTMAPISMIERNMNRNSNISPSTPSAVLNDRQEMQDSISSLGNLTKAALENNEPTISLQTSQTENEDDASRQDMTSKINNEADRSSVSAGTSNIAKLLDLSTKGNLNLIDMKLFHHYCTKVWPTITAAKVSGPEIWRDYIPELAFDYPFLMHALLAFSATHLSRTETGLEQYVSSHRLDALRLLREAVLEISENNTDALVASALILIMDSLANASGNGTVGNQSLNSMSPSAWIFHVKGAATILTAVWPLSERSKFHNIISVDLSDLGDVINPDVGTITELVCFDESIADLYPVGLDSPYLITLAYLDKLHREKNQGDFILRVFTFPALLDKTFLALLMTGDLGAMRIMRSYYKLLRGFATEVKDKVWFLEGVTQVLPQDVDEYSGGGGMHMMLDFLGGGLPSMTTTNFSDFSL
Procedure, shortened: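 Universal all-10-mer Agilent arrays, fresh or stripped once, were converted to double-stranded form by primer extension. GST-tagged yeast transcription factors from PURExpress in vitro transcription/translation, full-length or DNA-binding domain only, were applied at about 100-200 nM and detected with fluorescent anti-GST. After masliner normalisation, the Universal PBM Analysis Suite scored each ungapped eight-base word together with its reverse complement by E-score.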

Row | Sequence | PBM E-score
1 | AATGAACC | -0.215
2 | ACCACCGT | 0.256
3 | AATATTCC | 0.0175
4 | ACGGGGGG | 0.144
5 | AGCCTCAC | -0.132
6 | CCGAATGA | 0.136
7 | CGGCGCAC | -0.108
8 | GCTCTGTA | 0.0266
9 | AGTAAAAA | -0.0254
10 | AGTAGGGA | -0.108
11 | ATCTCCTC | -0.15
12 | CTACGCTC | -0.0609
13 | AAGGGTTA | -0.0151
14 | ATTTTGCG | 0.117
15 | GCGCCCCC | -0.275
16 | CCGTCGAG | -0.0803
17 | AAATAATT | 0.0449
18 | AGAGAACG | 0.244
19 | ATGTTTAA | 0.067
20 | AGAAGTCA | -0.169
21 | ATACTGTC | 0.0795
22 | CTCCTGCA | -0.139
23 | AGGCGCGC | 0.0734
24 | CATCCGAG | 0.156
25 | CGTGTTAA | -0.0587

Row | Sequence | PBM E-score
26 | GGCACACA | -0.136
27 | GCTTTCAA | -0.0049
28 | CGTGCCAC | -0.0715
29 | CGACAGAA | 0.208
30 | ACAAAGGG | -0.342
31 | CGGCTACG | 0.32
32 | GAGTCTAA | -0.0797
33 | CGGTTCAA | -0.0515
34 | GGGGTAAC | -0.00249
35 | AGCGTGGA | -0.0828
36 | ATTGCTAG | -0.174
37 | ACAGGCTC | -0.00845
38 | GGAGCTCA | -0.16
39 | CACAGCCG | -0.0707
40 | AGTCCTTA | -0.198
41 | CCGTTAAA | 0.33
42 | CTCAGAAC | 0.0403
43 | AACATCGA | -0.00447
44 | GCCAGGGA | -0.103
45 | ATCACAAA | -0.0424
46 | AGTTACCC | -0.0071
47 | GCCAATGA | -0.0974
48 | GACGCTGC | -0.0847
49 | ACTCAACA | -0.137
50 | GGACCGCA | 0.0332

Row | Sequence | PBM E-score
51 | CGTGAGGA | -0.188
52 | CTTACCGC | -0.019
53 | AGACGCAG | -0.129
54 | CTACCAAC | 0.0316
55 | ACCCTAGA | -0.0169
56 | ACTAAAGA | -0.0119
57 | CAGTTTTA | -0.112
58 | ATGTACAG | -0.0922
59 | CAATTCGA | 0.125
60 | GCTTATCC | -0.00299
61 | CGACGTAG | 0.171
62 | CAGTCCAC | -0.219
63 | CCAGGTAG | -0.22
64 | ATCAGGAT | 0.0669
65 | CTTCAAAG | -0.212
66 | ACCGTACG | 0.383
67 | GGATCGAC | -0.14
68 | ACAACCCT | 0.0138
69 | ATTTGAAA | 0.0202
70 | ACATCAAA | -0.0352
71 | CCAAAGGA | -0.235
72 | AGAGATGC | -0.0485
73 | ATGTCCAG | -0.0844
74 | ATCCGGAT | -0.191
75 | ATCCGGTA | 0.0978

Row | Sequence | PBM E-score
76 | AGAATTTC | -0.0372
77 | TGACGCAA | -0.138
78 | AACTGCAT | -0.0422
79 | CACCGGCG | -0.105
80 | AATACTGT | 0.082
81 | AACCTGAT | -0.0341
82 | CCAGCTTA | -0.102
83 | AATATAAG | 0.0611
84 | GGCAGAGA | -0.14
85 | AGTGGGGG | -0.314
86 | AGAAGTTG | 0.0297
87 | ATGGAGCC | -0.201
88 | TAATGTGA | -0.106
89 | ACGAATCA | 0.297
90 | CGGCCATC | -0.227
91 | AATATGCT | 0.094
92 | CAATCCTC | -0.205
93 | TATAAGCA | 0.117
94 | GTACCTGA | 0.162
95 | AAGCACTG | -0.0383
96 | CAAGGCAC | -0.0921
97 | GTAGTTCA | -0.0988
98 | CCCCGGGC | -0.22
99 | CTGTGGAC | -0.23
100 | GAGGACTC | -0.0936

Row | Sequence | PBM E-score
101 | CCGTTTGC | 0.304
102 | AACTCCTA | -0.0156
103 | AGATATTG | -0.106
104 | ACAAAGAA | 0.0923
105 | GAATAAGC | -0.137
106 | GATCGGAA | -0.0015
107 | ATTAACTG | 0.0926
108 | GATAATGC | -0.0042
109 | GTCTCCTA | -0.12
110 | CTGAGGCC | -0.124
111 | TGCTAGAA | 0.0223
112 | AACAGCGT | 0.0176
113 | CAAACCCC | -0.202
114 | CGTGACGC | 0.0229
115 | AATCAGCT | -0.174
116 | CGAATAAA | 0.264
117 | CGAGGCAA | 0.15
118 | TCACTCGA | 0.0443
119 | CAGACACA | -0.0758
120 | AGTTGCTA | -0.0402
121 | CACGGGCG | -0.203
122 | CTAGGGTC | -0.15
123 | AGGCACAG | -0.198
124 | ATCGGTAA | 0.274
125 | AGCCTTGA | -0.0944

Row | Sequence | PBM E-score
126 | AGACGGGC | -0.0532
127 | AAGTCTCT | -0.104
128 | ATCTACAG | -0.185
129 | CAATGTGA | -0.0553
130 | GAGCTCAC | 0.055
131 | GCTGGCCA | -0.239
132 | CCTACTTA | -0.246
133 | ACAGACAA | 0.156
134 | CGCACGCA | 0.0259
135 | CAGGGACA | -0.0338
136 | GTATTTCA | 0.00837
137 | AGCTCGGA | 0.0921
138 | ACGGATTC | 0.178
139 | TATGCGGA | 0.0785
140 | AGTGTTGG | -0.0355
141 | CGTTGTTA | 0.0821
142 | GAGGCGCC | 0.124
143 | CGAGTACG | 0.348
144 | CAACTACG | 0.0383
145 | TAGGAAGA | -0.288
146 | CACCCCAC | -0.121
147 | ACCAAGGT | -0.122
148 | TCTGTAAA | 0.0425
149 | ACCATCCT | -0.127
150 | AAATATCG | 0.0759

Row | Sequence | PBM E-score
151 | CGCTGGGA | -0.0151
152 | ATGATAAA | 0.0843
153 | ATATACGG | 0.456
154 | CCCCAAAA | -0.0915
155 | CATCTAGG | -0.155
156 | CTTCGTAA | 0.427
157 | CCTAATAA | 0.195
158 | ATAAGCCC | -0.0735
159 | GGATACGA | 0.463
160 | ACTCGATG | 0.0489
161 | CAGGCCTG | -0.172
162 | CGCAGGGA | -0.261
163 | CCTCAGGA | -0.137
164 | AAAACCCA | 0.0439
165 | GCTCGCAA | 0.225
166 | ACTGGGTG | -0.201
167 | ACTCTTTC | -0.117
168 | CCTTCTGA | -0.164
169 | ATCTAGAA | -0.0939
170 | TACCCCTA | -0.122
171 | TAGATCTA | -0.067
172 | ATATCAAA | -0.04
